Source: patent US20090117104A1 (published 2009)

Target: T1, mutated human GLP-2R (human, UniProt O95838 1-553)
T1 chain: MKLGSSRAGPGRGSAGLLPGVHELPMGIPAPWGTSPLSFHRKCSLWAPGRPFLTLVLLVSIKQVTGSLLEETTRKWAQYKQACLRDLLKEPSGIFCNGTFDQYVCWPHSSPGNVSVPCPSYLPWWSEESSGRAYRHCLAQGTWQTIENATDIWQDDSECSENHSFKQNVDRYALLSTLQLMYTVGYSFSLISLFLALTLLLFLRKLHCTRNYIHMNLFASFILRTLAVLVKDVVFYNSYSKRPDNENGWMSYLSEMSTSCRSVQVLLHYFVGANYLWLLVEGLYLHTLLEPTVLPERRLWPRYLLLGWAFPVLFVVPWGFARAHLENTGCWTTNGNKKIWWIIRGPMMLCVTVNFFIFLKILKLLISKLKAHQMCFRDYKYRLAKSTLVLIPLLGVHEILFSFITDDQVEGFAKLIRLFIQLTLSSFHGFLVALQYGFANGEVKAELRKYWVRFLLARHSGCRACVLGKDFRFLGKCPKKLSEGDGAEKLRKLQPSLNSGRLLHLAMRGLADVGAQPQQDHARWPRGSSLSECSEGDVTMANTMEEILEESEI
Experiment: cell-based or functional assay

B1: A2G GLP-2 IgG4 mimetibody (Fc fusion)
chain: HGDGSFSDEMNTILDNLAARDFINWLIQTKITDGSGGGSGTLVTVSS[in this place human IgG4 Fc with S228P F234A L235A (EU numbers)]
potency in the cAMP expression assay relative to the corresponding peptide: ~4 fold less
